Measurements reported in PubChem BioAssay (Tox21).
“And” between values parts separate entries of the source, which are not always exact repeats. Equal entries are not always repeated. Inconclusive results, whose numbers are uncertain, are shown with a selection of clear calls. A potency beside an inconclusive call is a rough fit, not a confirmed value. A structure can be active in one record and inactive in another. The source made the active and inactive calls. The call rests on the fitted dose curve; in most records, active means well fitted inhibition curve with a large enough effect in the repeat runs; inconclusive means weak or mixed curves; inactive means no such curve, though single readings can be large or run the other way.

biological target: Cytochrome P450 2C19 (Homo sapiens) (UniProt P33261); assay: Cytochrome P450 Family 2 Subfamily C Member 19 (CYP2C19) small molecule antagonists: luciferase reporter qHTS assay (AID 1671197); conditions: P450-Glo CYP2C19 enzyme, luciferin luminescence, 1 h; series mostly up to 115 µM; further: nearly all actives have a fitted effect of over 65% in size
In short: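 P450-Glo CYP2C19 system: enzyme-substrate mix with compound 10 min at room temperature, then NADPH regeneration solution, 1 h at 37C. Proluciferin-to-luciferin conversion detected by luminescence after 20 min with detection reagent; ketoconazole as positive control.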
Potency means the concentration at half of the fitted maximal effect; tags describe the fitted curve by direction and shape.

Sequence of UniProt P33261 (P33261 whole entry, looked up): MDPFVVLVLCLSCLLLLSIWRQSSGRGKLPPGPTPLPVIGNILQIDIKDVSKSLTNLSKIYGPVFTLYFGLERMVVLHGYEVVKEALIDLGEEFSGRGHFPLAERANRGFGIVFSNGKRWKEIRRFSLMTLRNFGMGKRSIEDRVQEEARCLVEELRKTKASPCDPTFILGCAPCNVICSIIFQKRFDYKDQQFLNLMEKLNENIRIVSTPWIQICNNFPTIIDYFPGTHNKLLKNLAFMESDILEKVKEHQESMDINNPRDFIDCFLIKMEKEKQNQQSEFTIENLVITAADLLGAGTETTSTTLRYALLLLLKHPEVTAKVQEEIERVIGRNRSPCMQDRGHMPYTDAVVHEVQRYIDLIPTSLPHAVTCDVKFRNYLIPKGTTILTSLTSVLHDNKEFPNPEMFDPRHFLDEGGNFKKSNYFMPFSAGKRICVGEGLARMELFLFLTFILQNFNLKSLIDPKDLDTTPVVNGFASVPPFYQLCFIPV

| Compound | Potency |
| --- | --- |
| Nc1c(S(=O)(=O)O)cc(Br)c2c1C(=O)c1ccccc1C2=O | inconclusive: 89.4 µM [inhibitor, single point] |
| Cc1cc(C(=O)O)ccc1[N+](=O)[O-] | inconclusive: 44.9 µM [inhibitor, partial curve, poor fit] |
| Cn1sccc1=O | inconclusive: 89.4 µM [inhibitor, single point] |
| Cc1nc(N)nc(N)c1-c1ccc(Cl)c(Cl)c1 | inactive |
| CC/C=C\CCOC(C)=O | inactive |
| Nc1ccc(N=Nc2ccc(N)cc2)cc1 | inconclusive: 31.7 µM [inhibitor, partial curve, poor fit] |
| O=Cc1ccc(C(=O)O)cc1 | inactive |
| CC(C)=CCOc1ccc(/C=C/C(=O)c2ccc(OCC=C(C)C)cc2OCC(=O)O)cc1 | inconclusive: 0.692 µM [inhibitor, full curve, poor fit] |

biological target: Cytochrome P450 2C9 (Homo sapiens) (UniProt P11712); assay: Cytochrome P450 Family 2 Subfamily C Member 9 (CYP2C9) small molecule antagonists: luciferase reporter qHTS assay (AID 1671198); conditions: P450-Glo CYP2C9 enzyme assay, luciferin luminescence; series mostly up to 115 µM; further: nearly all actives have a fitted effect of over 50% in size
In short: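 Enzyme-substrate mix preincubated with compound 10 min at room temperature; reaction started with NADPH regeneration solution, 1 h 37C. Luminescent luciferin product read after 20 min detection reagent.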

Sequence of UniProt P11712 (P11712 whole entry, looked up): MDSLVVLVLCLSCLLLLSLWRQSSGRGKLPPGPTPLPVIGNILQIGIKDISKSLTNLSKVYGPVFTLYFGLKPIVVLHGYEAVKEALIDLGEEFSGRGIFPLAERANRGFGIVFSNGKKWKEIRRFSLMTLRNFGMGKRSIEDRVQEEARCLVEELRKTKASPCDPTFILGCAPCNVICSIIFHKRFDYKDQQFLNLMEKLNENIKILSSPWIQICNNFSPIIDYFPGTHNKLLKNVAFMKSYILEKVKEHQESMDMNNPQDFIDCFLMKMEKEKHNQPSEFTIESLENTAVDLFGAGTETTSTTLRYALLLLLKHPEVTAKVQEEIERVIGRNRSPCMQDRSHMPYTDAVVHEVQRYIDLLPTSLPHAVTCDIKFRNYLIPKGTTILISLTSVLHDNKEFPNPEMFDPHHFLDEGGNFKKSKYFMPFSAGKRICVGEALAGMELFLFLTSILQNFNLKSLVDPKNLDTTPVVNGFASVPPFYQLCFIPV

| Compound | Potency |
| --- | --- |
| NC(=O)CCCCC(N)=O | inactive |
| O=S(=O)(O)CCS | inconclusive: 49.6 µM [inhibitor, partial curve, poor fit] and inconclusive: 30.9 µM [inhibitor, partial curve] |
| O=[N+]([O-])c1ccc(F)c(Cl)c1 | inconclusive: 35.7 µM [inhibitor, partial curve, poor fit] |
| O=C1c2ccccc2C(=O)C1c1nc2ccccc2c(Br)c1O | inconclusive: 11.2 µM [inhibitor, full curve] |
| CCCCC/C=C\C/C=C\CCCCCCCC(=O)OC | active: 35.2 µM and active: 7.96 µM |
| CC1=CC(=O)CC(C)(C)C1 | inconclusive: 58 µM [inhibitor, partial curve] |
| Cc1ccc([N+](=O)[O-])cc1N | inconclusive: 44.7 µM [inhibitor, partial curve] and inconclusive: 79.6 µM [inhibitor, partial curve, poor fit] |
| CC(=O)[C@H]1[C@H](C#N)C[C@H]2[C@@H]3CC=C4C[C@@H](O)CC[C@]4(C)[C@H]3CC[C@@]21C | inconclusive: 17.2 µM [inhibitor, single point] |
| O=C1CCc2ccccc2O1 | inconclusive: 56.7 µM [inhibitor, partial curve, poor fit] |
| Cc1cn([C@H]2C[C@H](N=[N+]=[N-])[C@@H](CO)O2)c(=O)[nH]c1=O | inconclusive: 73 µM [inhibitor, partial curve, poor fit] |
| NC(=O)c1ccc([N+](=O)[O-])cc1 | inconclusive: 50 µM [inhibitor, partial curve, poor fit] |
| CC1(C)C(=O)N(Br)C(=O)N1Cl | active: 63.3 µM |
| O=C(Oc1ccccc1)Oc1ccccc1 | inconclusive: 35.4 µM [inhibitor, partial curve] |
| Clc1nnc(Cl)c2ccccc12 | inactive |
| CCCCN(CCCC)C(C(N)=O)c1ccc(OC)cc1 (configuration not stated) | inconclusive: 34.7 µM [inhibitor, partial curve] |
| Nc1ccc(N=Nc2ccc(N)cc2)cc1 | inconclusive: 31.7 µM [inhibitor, partial curve] |
| COc1ccc(-n2nc(C(F)F)cc2-c2ccc(S(C)=O)cc2)cc1 (configuration not stated) | active: 31.7 µM |
| CC(C)(C)c1ccc(OC2CCCCC2O)cc1 (configuration not stated) | active: 35.6 µM |
| C=C1c2cccc(O)c2C(O)=C2C(=O)[C@]3(O)C(O)=C(C(N)=O)C(=O)[C@@H](N(C)C)[C@@H]3[C@@H](O)[C@H]12 | inconclusive: 9.77 µM [inhibitor, full curve, poor fit] |
